# Test results published in PubChem BioAssay AID1745853 (National Center for Advancing Translational Sciences (NCATS), 2022).
# This is one part of the list. Shown are side measurements of this screen, not its main read-out; they come without a call.
# Assays:
# Assay in all cases: Primary Screen for Target Class Profiling of Small Molecule Inhibitors of Methyltransferases
# [1] = molecular target: Glycine N-methyltransferase (Homo sapiens) (UniProt Q14749); details: purified enzyme, MTase-Glo SAH luminescence; measured here: GNMT inhibition; at 40 µM; stronger effect = lower value
# Outline: (§1)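 Each enzyme was assayed with SAM and its substrate. SAH formation detected by MTase-Glo luminescence; single-point 40 uM screen[…].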
# [2] = molecular target: Guanidinoacetate N-methyltransferase (Homo sapiens) (UniProt Q14353); details: purified enzyme, MTase-Glo SAH luminescence; measured here: GAMT inhibition; at 40 µM; stronger effect = lower value
# Outline: as §1
# [3] = molecular target: Histamine N-methyltransferase (Homo sapiens) (UniProt P50135); details: purified enzyme, MTase-Glo SAH luminescence; measured here: HNMT inhibition; at 40 µM; stronger effect = lower value
# Outline: as §1
# [4] = molecular target: Nicotinamide N-methyltransferase (Homo sapiens) (UniProt P40261); details: purified enzyme, MTase-Glo SAH luminescence; measured here: NNMT inhibition; at 40 µM; stronger effect = lower value
# Outline: as §1
# [5] = molecular target: Phenylethanolamine N-methyltransferase (Homo sapiens) (UniProt P11086); details: purified enzyme, MTase-Glo SAH luminescence; measured here: PNMT inhibition; at 40 µM; stronger effect = lower value
# Outline: as §1
# % is set by controls: 0 for no effect and ±100 for the full control effect.
Compound,"activity change, negative = inhibition [1] [%]","activity change, negative = inhibition [2] [%]","activity change, negative = inhibition [3] [%]","activity change, negative = inhibition [4] [%]","activity change, negative = inhibition [5] [%]"
CCC(C)NC(=O)c1ccc2c(=O)n(C(C)C)c3nn(CC(=O)Nc4ccc(C)c(F)c4)c(=O)n3c2c1 (stereo not given),4.23,0,1.39,2.32,3.82
COc1cc(/C=C/C(=O)OC2CC3CCC2(C)C3(C)C)ccc1O (stereo not given),0.976,6.63,9.79,-13.1,-3.23
COC1C2=C(COC2=O)C2(C)CCCC(C)(CO)C2C1OC(=O)c1ccccc1 (stereo not given),2.5,2.04,8.06,-8.46,2.5
COc1ccc(NC(=O)c2ccc3c(c2)OCC(=O)N(C)C3)c(F)c1,-4.86,-4.03,0.864,-7.31,-4.35
Cc1ccc(N2CCN(S(=O)(=O)c3cc4c(cc3C)n(C)c(=O)n4C)CC2)c(C)c1,-6.13,0.675,-8.6,-12.2,-12
COc1ccccc1OCCNC(=O)C(C)C1CCOCC1 (stereo not given),1.06,-3.21,4.33,0.441,-7.59
CCC/C=C\C=C/CCc1cc(O)c([C@@H]2O[C@H](CO)[C@@H](O)[C@H](O)[C@H]2O)c(O)c1C(=O)OC,-2.31,0.417,7.16,-17.6,-11
C=CCN1C(=O)c2ccc(-c3ccco3)n2CC1(C)C(=O)NCc1ccc(Cl)cc1 (stereo not given),-5.94,-13.8,5.85,-6.19,-4.97
Cc1ccc(C(=O)N2CCc3sc(C(=O)NCc4cc(F)cc(F)c4)cc3C2)cc1,-8.5,-10.9,-19.2,-17.9,-13.6
CCN1C(=O)c2cc3ccccc3n2CC1(C)C(=O)NCC(=O)NCCc1ccco1 (stereo not given),-8.69,0,2.64,-1.38,-3.11
Cc1nc(CN2C[C@H](C(=O)N3CCN(c4ccccn4)CC3)C[C@@H]2c2ccc(F)cc2)cs1,-4.03,0.946,0.222,-9.09,-1.34
Cc1cccc(CNC(=O)Cn2ccc3cc(S(=O)(=O)N4CCC(C)CC4)ccc32)c1,-0.118,2.08,-0.331,-6.59,-1.2
CC1(C(=O)NCC2CCCO2)Cn2c(cc3ccccc32)C(=O)N1Cc1cccc(Cl)c1 (stereo not given),-0.307,2.86,3.04,-2.88,-1.01
CCOc1ccc(S(=O)(=O)NCCn2c(C(F)(F)F)nc3ccccc32)cc1,-11,3.12,-8.23,-12.2,-12.1
CCC(C)N(C)C(=O)c1cc2ccccc2c(-c2ccccc2Cl)n1 (stereo not given),-0.645,15,2.22,-18.3,10.8
COc1cc(C2Oc3c(OC)cc(CCCO)cc3C2CO)ccc1O (stereo not given),1.37,-0.394,8.06,-10.6,-5.78
CCc1cc2c(cc3n2CC(C)(C(=O)NC2CCC(C)CC2)N(c2ccccc2C)C3=O)s1 (stereo not given),7.32,2.13,8.82,15.6,5.15
Cc1cnc(CCNC(=O)c2n[nH]c3ccccc23)n1C1CCC1,-10.8,-0.571,-38.1,-7.6,-3.92
Nc1nc2ccc(Cl)cc2c2nc(-c3ccco3)nn12,-15.9,-4.8,3.29,-13.2,-3.08
Cc1noc(C)c1-c1cnc(Nc2ccc(F)c(Cl)c2)c2c1CCO2,-8.45,-12.2,-9.91,-16.6,-8.82

Compound,"activity change, negative = inhibition [1] [%]","activity change, negative = inhibition [2] [%]","activity change, negative = inhibition [3] [%]","activity change, negative = inhibition [4] [%]","activity change, negative = inhibition [5] [%]"
CN(CC(=O)NCc1cccnc1)S(=O)(=O)c1ccc2[nH]c3c(c2c1)CCCC3,-6.46,-3.8,-3.67,1.69,-9.43
COC(=O)c1cc2n(n1)CC(C)(C(=O)NC1CCCCC1)N(c1cc(C)ccc1C)C2=O (stereo not given),4.49,4.97,-13.4,10.1,4.73
C[C@@H]1C(=O)O[C@H]2C[C@]34[C@H]5C[C@@H](C(C)(C)C)[C@]36[C@@H](OC(=O)[C@H]6O)O[C@]4(C(=O)O5)[C@]21O,3.66,-4.51,1.52,-14.3,-0.197
CCCN1C(=O)c2c(C(=O)NCCc3ccc(Cl)cc3)ncn2CC1(C)C(=O)NC1CCCC1 (stereo not given),-4.46,2.94,-1.39,-5.17,-2.23
COc1ccc(CNc2nc3c(S(=O)(=O)c4ccc(C)c(C)c4)nnn3c3ccccc23)cc1,-5.96,3.21,-2.73,2.93,-8.32
Cc1cc(CNC(=O)c2cc(C(C)C)nn2C)c2[nH]c(C)c(C)c2c1,-8.71,-8.96,-2.49,-9.68,-8.72
COc1ccccc1CN1C(=O)c2cc3ccccc3n2CC1(C)C(=O)NC1CCCC1 (stereo not given),-0.908,0.613,1.9,1.99,0.12
COC1C(=O)N(C2CCN(C(=O)c3cc(C)nn3C)CC2)C12CCOCC2 (stereo not given),-0.893,-0.833,0.421,4.44,5.94
C#CCNC(=O)CC[C@@H]1CNC(=O)[C@@H]2C[C@H](NC(=O)c3ccco3)CN12,-8.81,-8.41,-4.42,-12.5,-18.6
CCCN(C)C(=O)CC1COCCN1C(=O)Nc1cccc(SC)c1 (stereo not given),-7.46,-10.2,-4.04,-15.8,-13.3
Cn1nccc1CN1CCC2(C1)C(=O)Nc1ccccc12 (stereo not given),-13.6,-3.47,-0.138,-13.1,10.1
O=C(NCc1ccccc1F)C1CC(c2ccccc2)CN(C(=O)COc2ccccc2)C1 (stereo not given),-4.39,-1.15,-0.659,-1.88,-16.2
Cn1c(=O)n(C)c2cc(S(=O)(=O)NC3CCCCC3)ccc21,-1.93,0,12,16.5,3.61
C[S+](=O)([O-])NC1CCCN(Cc2ccc(-c3cncnc3)cc2)C1 (stereo not given),-0.29,-0.608,1.44,-5.63,-0.143
COC(=O)c1ncn2c1C(=O)N(Cc1ccc(OC)c(OC)c1)C(C)(C(=O)NC1CCCCC1)C2 (stereo not given),-5,6.59,-2.59,0.54,3.46
CCOC(=O)Cn1c(=O)oc2cc(S(=O)(=O)NCCc3ccc(Cl)cc3)ccc21,-2.4,7.09,3.02,6.72,-3.87
CCn1ncnc1C1CC(=O)Nc2cc(OC)c(NS(C)(=O)=O)cc21 (stereo not given),1.6,2.85,1.27,6.37,4.77
CN(C(=O)CCc1nc2ccccc2[nH]1)C1CCc2nn(C)c(=O)n2CC1 (stereo not given),-0.508,-1.47,0.301,-1.03,-0.55
CCCC1c2ccc(C)n2CCN1C(=O)Nc1ccc(Cl)cc1 (stereo not given),3.04,4.15,-1.26,8.71,0.282
CCCn1c(=O)c2ccc(C(=O)NC(C)C)cc2n2c(=O)n(CC(=O)N(C)c3ccc(F)cc3)nc12,-0.009,-0.526,-1.79,-9.92,-7.03

Compound,"activity change, negative = inhibition [1] [%]","activity change, negative = inhibition [2] [%]","activity change, negative = inhibition [3] [%]","activity change, negative = inhibition [4] [%]","activity change, negative = inhibition [5] [%]"
Cc1c(CN2CC[C@H]3CC[C@@H](C2)N3)c(=O)n(-c2ccccc2)n1C,-0.901,-0.354,-3.94,0.822,0.844
COc1cccc(CNC(=O)Cn2ccc3cc(S(=O)(=O)N4CCCC4)ccc32)c1,-0.698,1.71,-1.57,-15.6,-2.55
Cc1ccc(NC(=O)COc2ccc(-c3nnc4n3CCCC4)cc2)cc1C,-4.83,-5.76,-5.39,-13.3,-5.65
O=C(NCCc1ccc(Cl)cc1)C1CN(C2CCCC2)C(=O)N1 (stereo not given),-7.92,-7.96,-3.92,-24.2,-8.7
CCCn1c(=O)c2ccc(C(=O)NC3CCCC3)cc2n2c(=O)n(CC(=O)Nc3ccccc3C)nc12,3.73,0,6.46,5.73,3.76
CSc1ccc(CCNC(=O)c2cc3n(n2)CCCN(Cc2ccc(C)cc2)C3=O)cc1,-11.2,3.15,-6.69,-9.16,-1.12
CCOC(=O)c1cc2n(n1)CC(C)(C(=O)NCc1ccc(C)cc1)N(Cc1ccccc1Cl)C2=O (stereo not given),7.61,2.45,12,3.91,4
COCCN1CCC2(CCC1=O)CN(c1ccc(C#N)cn1)CCN2C (stereo not given),-6.28,-3.67,-2.08,-9.42,10
CC1=CC(=O)CC2C1(O)CCC(C)C21CC(c2ccoc2)OC1=O (stereo not given),0,-3.96,6.93,-19.3,-13.5
COc1ccc(N2C(=O)c3cc(-c4cccs4)nn3CC2(C)C(=O)NC2CCCCCC2)cc1 (stereo not given),1.77,0,8.6,7.89,3.82
Cn1c2c(c3ccccc31)C(C(=O)NCc1ccccc1)N(Cc1ccccc1Cl)C(=O)CS2 (stereo not given),13.6,1.65,8.43,6.98,2.49
CC1=NOC2(CCN(CC3CC3)CC2)C1,0.327,1.67,3.47,-4.92,14.8
CC(=O)O[C@H]1[C@H](OC(=O)C(C)C)[C@]2(C)OC3(CC[C@]2(C)[C@H]2CCC[C@]4(CO4)[C@]12C)COC(=O)C3 (stereo not given in full),0,-5.3,0.453,-19,0.705
CCOCCCNC(=O)c1ccc2c(=O)nc3c(-c4cccc(F)c4)n[nH]n3c2c1,-4.8,-3.08,0.438,-0.485,-3.49
CC(C)S(=O)(=O)Nc1ccc(F)c(C(=O)c2c[nH]c3ncc(-c4cccnc4)cc23)c1F,-17.8,-4.07,1.43,-32,-14.6
O=[S+]([O-])(Nc1cccnc1)c1ccc2c(c1)OCCN(Cc1cncnc1)C2,-3.07,0.495,1.47,-0.11,-0.079
O=c1c2ccccc2n2c(-c3ccc(F)c(F)c3)nnc2n1CCc1ccccc1,-4.33,2.46,-2.12,-4.23,-7.62
Cc1cc2c(cc3n2CC(C)(C(=O)NC2CCCCCC2)N(Cc2ccccc2)C3=O)o1 (stereo not given),-3.35,2.87,1.72,-3.64,-1.93
Cn1c(=O)c2ccc(C(=O)NC3CCCCC3)cc2n2c(=O)n(Cc3ccc(F)cc3)nc12,3.64,0,9.9,0.521,1.35
COC(=O)c1ccc2nc(CO[C@H]3CN(Cc4cccc(C#N)c4)C[C@H]3F)[nH]c2c1,-8.75,-5.64,-25.5,-13.2,-6.26
